ChEMBL document CHEMBL4888484, “Replenishing the malaria drug discovery pipeline: Screening and hit evaluation of the MMV Hit Generation Library 1 (HGL1) against asexual blood stage Plasmodium falciparum ,using a nano luciferase reporter read-out” (2022)
Values joined by “and” are separate entries in the source; they are usually repeats but may differ in a detail not shown here. Equal entries are not always repeated. Screen size: about 150,000 compounds; about 540 (0.36%) showed an effect of 50% or more. This is one part of the list.

Tested on: Plasmodium falciparum
Assay: Primary screen in NF54 nanoGlo assay, in single point, at 2uM, 72h; a lower Z score goes with more inhibition
Type: functional, Erythrocyte
Conditions: timepoint 72 hour

Row | SMILES | % Inhibition [%] | Z score | % Inhibition (2 µM) | Z score (2 µM)
1 | COc1ccc(C(=O)Oc2ccc3nc(N(C)C)sc3c2)cc1 | 2 | -0.29 | – | –
2 | Cc1nonc1OCCNC(=O)COc1ccc(N(C)Cc2ccc(F)cc2)nn1 | -6 | 0.8 | – | –
3 | CCc1nnc(COc2cnc3ccccc3c2)o1 | -6 | 0.56 | – | –
4 | O=C(N[C@@H]1[C@@H]2CCO[C@@H]2[C@H]1N1CCCCC1)c1n[nH]c2c1CCC2 | -10 | 1.83 | – | –
5 | CCOc1cncc(CN2CC(CC3COCC(=O)N3)c3ccccc32)c1 (stereo not given) | -10 | 0.91 | – | –
6 | COCC[C@]1(NC(=O)c2ccc(F)cc2)CCN(Cc2ccccc2OC(C)C)C1 | 7 | -1.14 | – | –
7 | COc1ccc(CC2CCN(C(=O)c3c(C)noc3-c3ccc4c(c3)OCO4)CC2)cc1 | -10 | 1.4 | – | –
8 | COC(=O)c1ccc(NC(=O)NC2CCOC3(CCOC3)C2)cc1 (stereo not given) | 10 | -1.42 | – | –
9 | Cc1cc(CN(C)c2ncccc2C(=O)OC(C)C)no1 | 0 | -0.05 | – | –
10 | O=C(CCC1CCN(c2nccs2)CC1)Nc1ccc2c(c1)OCCO2 | -8 | 1.51 | – | –
11 | O=C(CNCC1CCCCC1)Nc1cc(S(=O)(=O)N2CCOCC2)ccc1N1CCOCC1 | 0 | -0.03 | – | –
12 | Cc1cc(Oc2ccc(NC(=O)c3cc[nH]n3)cc2)n[nH]1 | -22 | 1.92 | – | –
13 | Cc1nc(CC(=O)N2CCS(=O)(=O)CC2)cs1 | -12 | 2.28 | – | –
14 | COc1cccc(C(C(=O)O)N2CC(C)OC3(CCCCC3)C2)c1 (stereo not given) | 4 | -0.59 | – | –
15 | Cc1cccc(C(=O)Nc2ccc(N3CC[C@H](c4cccc(C)c4)C3)cc2C(=O)O)c1 | -6 | 1.08 | – | –
16 | CCN(c1cccc(C)c1)c1ncnc2c1cnn2-c1ccc(Cl)cc1C | 2 | -0.28 | – | –
17 | O=C(NCCO)NCCCc1ccc(Cl)cc1Cl | -7 | 1 | – | –
18 | O=C(NC[C@H]1CCCN(c2nccs2)C1)c1cc(-c2ccc(F)cc2)c[nH]1 | 19 | -2.46 | – | –
19 | CCCC(c1ccccn1)N(C)C(C)C(=O)Nc1cc(F)ccc1C (stereo not given) | 8 | -1.13 | – | –
20 | Cc1cccnc1[C@H](C)NS(=O)(=O)N1CCCC1 | 9 | -1.2 | – | –
21 | CC[C@](NC(=O)c1coc(C)c1)(C(=O)O)c1ccccc1 | 6 | -0.7 | – | –
22 | O=C(NCCOCC1CCOC1)C1(O)CC2CCC1C2 (stereo not given) | -7 | 1.21 | – | –

Row | SMILES | % Inhibition [%] | Z score | % Inhibition (2 µM) | Z score (2 µM)
23 | CCn1c2ccccc2c2cc([C@H](C)NC(=O)c3cccc(Cl)c3)ccc21 | -3 | 0.37 | – | –
24 | CC1CN(CC(O)C(F)(F)F)CC(C)N1CC(O)C(F)(F)F (stereo not given) | -8 | 0.86 | – | –
25 | CC(C)(C)OC(=O)N1CCC[C@H](/C(N)=N/O)C1 | -17 | 1.92 | – | –
26 | CC1(CS(=O)(=O)N2CCO[C@@H](Cn3cccn3)C2)CCOCC1 | -7 | 0.93 | – | –
27 | CCN1C(=O)C[C@H](C(=O)NCC(C)(C)c2ccc(C)cn2)[C@H]1c1nccn1C | -3 | 0.49 | – | –
28 | Cn1cc(NC(=O)C(=O)NCC2(c3ccc(F)cc3F)CC2)cn1 | 30 | -0.15 | – | –
29 | COc1ccc(CC(=O)N[C@H]2CC(C)(C)Cc3c2cnn3-c2ccccc2C)cc1OC | -11 | 1.34 | – | –
30 | O=C1C[C@]2(C(=O)Nc3c(Cl)cccc32)c2cn[nH]c2N1 | -2 | 0.21 | – | –
31 | COc1ccc(C[C@@H]2C3=C(CCCC3)CCN2C(=O)c2ccnn2C)cc1 | -7 | 1.33 | – | –
32 | NC(=O)c1nsc2c(=O)n(CC(=O)NCc3ccccc3Cl)cnc12 | -5 | 0.91 | – | –
33 | O=C(c1ccccc1)N(CC1CCCO1)CC1CN(C(=O)c2ccccc2Cl)CCO1 (stereo not given) | -2 | 0.26 | – | –
34 | Cc1cc(NC(=O)[C@@H]2CCCc3ccccc32)nc(=O)[nH]1 | -6 | 0.7 | – | –
35 | O=C1N[C@H]2CC[C@@H]1CN(C(=O)c1ccc(-c3cccc4ccnn34)cc1)C2 | -8 | 1.31 | – | –
36 | O=C(c1nc2ccccc2s1)N1CC(c2nc(-c3ncccn3)no2)C1 | -4 | 0.73 | – | –
37 | O=C(c1csc2cncn12)N1CCn2nc(C3CC3)cc2C1 | -1 | 0.21 | – | –
38 | COc1ccc2c(C3CCN(C(C)=O)CC3)noc2c1 | 3 | -0.4 | – | –
39 | Cc1n[nH]cc1NC(=O)Nc1nccs1 | -3 | 0.37 | – | –
40 | COCCS(=O)(=O)Nc1c(F)cc(F)cc1Br | -8 | 0.8 | – | –
41 | Cc1n[nH]cc1CNC(=O)C1CC(=O)N(C)C1c1cccc(Cl)c1 (stereo not given) | -3 | 0.31 | – | –
42 | COc1cccc(-c2cc(C(=O)NCc3ccco3)c3cc(Br)cc(C)c3n2)c1 | -7 | 0.92 | – | –
43 | Cc1onc(N)c1S(=O)(=O)NCc1ccco1 | -21 | 1.83 | – | –
44 | Cc1nnsc1C(=O)NC[C@H]1CCCN(CC(C)C)C1 | -17 | 1.96 | – | –

Row | SMILES | % Inhibition [%] | Z score | % Inhibition (2 µM) | Z score (2 µM)
45 | CCN(C(=O)c1cnc(C(=O)OC(C)(C)C)cn1)C1CCCC1 | 2 | -0.3 | – | –
46 | CCN=C(NCCCOCCOC)NCc1ccc(F)cc1 | -13 | 1.19 | – | –
47 | Cc1cc(C)n(CCN(C)CC(C)(C)CN2CCCC2)n1 | 10 | -1.26 | – | –
48 | O=C(CNC(=O)c1ccc(F)cc1F)Nc1ccc2nncn2c1 | 4 | -0.42 | – | –
49 | O=C1CN(C(=O)c2csc(C3CCCCC3)n2)c2ccncc2N1 | -3 | 0.4 | – | –
50 | NC(=O)[C@]1(O)CCN(C(=O)Nc2ccc3c(c2)C(=O)CCCC3)C1 | -11 | 2.23 | – | –
51 | CCN(Cc1cnn(CC)c1)C(=O)c1cn2c(n1)C(=O)N(CC)CC2 | -7 | 0.92 | – | –
52 | O[C@H]1CCN(c2ccnc(N3CCC4(CCCO4)CC3)n2)C1 | 0 | 0.06 | – | –
53 | O=C1C[C@H](c2nc(-c3ccc(Oc4ccccc4)cc3)c[nH]2)CN1 | 2 | -0.25 | – | –
54 | Cc1cnn(C2CCCN(C(C)C(=O)Nc3cc(F)ccc3F)C2)c1 (stereo not given) | 4 | -0.72 | – | –
55 | CC1CC(c2ccccc2)CN1C(=O)NCCc1ccn(C)n1 (stereo not given) | -7 | 0.94 | – | –
56 | O=C(Cc1nnc(-c2cccnc2)[nH]1)NCc1ccccn1 | – | – | -11% and -13% | 1.37 and 1.29
57 | CCOC1(C)CCN(c2cc(C(C)C)nc3ncnn23)CC1 | -10 | 1.25 | – | –
58 | CNC(=O)CC(=O)N1CCCCC[C@@H]1CC(=O)c1ccccc1 | -13 | 2.39 | – | –
59 | O=C1NCCOc2cc(F)c(Br)cc21 | -10 | 1.48 | – | –
60 | CN(C)C(=O)CS(=O)(=O)c1ccccc1 | -1 | 0.15 | – | –
61 | COc1cc(S(=O)(=O)NC(C)C)c(S(=O)(=O)NC(C)C)c(OC)c1OC | -11 | 1.24 | – | –
62 | O=C(Nc1c(-c2ccc(C(F)(F)F)cc2)n[nH]c1C1CC1)c1ccc(F)cc1 | -3 | 0.54 | – | –
63 | CCCN1C(=O)c2cc(C(=O)Nc3ccc(OC)cc3OC)ccc2[C@H]1Nc1ccc(OC)cc1OC | -11 | 1.42 | – | –
64 | C[C@@H]1Oc2ccc(NC(=O)c3cccc(S(=O)(=O)NCc4ccc5c(c4)OCO5)c3)cc2NC1=O | -2 | 0.33 | – | –
65 | CCO[C@@H](C)c1nc(CN(C)Cc2ncnn2C)cs1 | -1 | 0.09 | – | –
66 | CN(C)Cc1cn(C[C@H]2C[C@@H](NC(=O)Nc3ccc4c(c3)OCCO4)[C@H](O)[C@@H]2O)nn1 | 42 | -4.8 | – | –

Row | SMILES | % Inhibition [%] | Z score | % Inhibition (2 µM) | Z score (2 µM)
67 | COC(=O)NC(N1CCCC1=O)(C(F)(F)F)C(F)(F)F | -11 | 1.24 | – | –
68 | CCC(C)(C)c1nnc(NC(=O)CC(C)C)s1 | 6 | -1.01 | – | –
69 | O=C(C[C@H]1CCCN(c2cn[nH]c(=O)c2)C1)NCc1cccc(Cl)c1 | -11 | 1.42 | – | –
70 | O=C(N[C@@H]1CN(Cc2cccc(F)c2)CC[C@@H]1CO)c1ccccc1 | -16 | 2.13 | – | –
71 | CC(C)CCNC(=O)N1CCC[C@H](Oc2nc(C3CC3)nc3c2CCOCC3)C1 | -8 | 0.76 | – | –
72 | Cc1cc([C@@H](O)CCNC(=O)c2ccco2)c(C)o1 | -9 | 1.15 | – | –
73 | CCC[C@H](C)NC(=O)c1cc(Cl)ccc1OC | -7 | 0.92 | – | –
74 | O=C1NC[C@@H](C(=O)NCCc2cccc(F)c2F)O1 | -7 | 1.08 | – | –
75 | Nc1ncc(Cl)cc1S(=O)(=O)N1CC2(CCOC2)C1 | 5 | -0.83 | – | –
76 | C[C@H](NCc1ncnn1C)c1ccc(F)cc1Cl | -6 | 0.68 | – | –
77 | CC(C)n1ccnc1C(=O)N1CC[C@H](OC(=O)N(C)C)C1 | -15 | 2.83 | – | –
78 | CC[C@H](Oc1ccc(C)cc1)C(=O)NC | 30 | -3.44 | – | –
79 | CCNC(=O)[C@@H]1CCCN1C(=O)Nc1cc(C(=O)OC)ccc1C | -7 | 1.22 | – | –
80 | c1ccc(-n2ncc3c2CCC[C@@H]3NCc2cc3ccccc3s2)nc1 | -8 | 1.42 | – | –
81 | CCCNC(=O)C(CC)Oc1ccc2c(c1)C(c1ccc(F)cc1)N(C(=O)C1CCCC1)CC2 (stereo not given) | 2 | -0.34 | – | –
82 | Cc1ccccc1Cn1cnc(CNC(=O)OC(C)(C)C)c1 | 2 | -0.27 | – | –
83 | C[C@@H](C(=O)NCc1ccccc1)S(=O)(=O)Cc1cc(Cl)c2c(c1)OCCCO2 | -1 | 0.28 | – | –
84 | O=C(NS(=O)(=O)c1cccnc1)C1CC1c1cccc(F)c1F (stereo not given) | 0 | 0 | – | –
85 | NC(=O)c1csc(CNCc2ccc(Cn3cccn3)cc2)c1 | -10 | 1.39 | – | –
